Experimental data: US20250026838A1

Molecular target: Human Galectin-3 (Gal3) protein (human) (UniProt P17931)
Assay: competition ELISA, hGal3 coated; competitor: biotinylated aggregated phospho-tau

UniProt P17931, sequence (P17931 whole entry): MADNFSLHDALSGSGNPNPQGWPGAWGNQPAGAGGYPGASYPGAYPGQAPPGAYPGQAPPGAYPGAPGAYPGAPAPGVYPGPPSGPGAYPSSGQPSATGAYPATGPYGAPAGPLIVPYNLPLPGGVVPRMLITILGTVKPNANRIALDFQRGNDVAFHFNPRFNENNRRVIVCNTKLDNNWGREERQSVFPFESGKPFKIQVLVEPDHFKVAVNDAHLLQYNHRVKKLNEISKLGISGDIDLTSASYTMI

blocking efficacy: > 70%
B1: 847.26F5-hIgG4(S288P) (antibody)
heavy: QIQLVQSGPEVKKPGETVKISCKASGYIFTNYGMNWVKQAPGKGLKWMGWINTYTGEPTYTDDFKGRFAFSLETSASTAYLQINNLKNEDTATYFCAKFGNYVGAMDYWGQGTSVTVSSASTKGPSVFPLAPCSRSTSESTAALGCLVKDYFPEPVTVSWNSGALTSGVHTFPAVLQSSGLYSLSSVVTVPSSSLGTKTYTCNVDHKPSNTKVDKRV[human IgG4 Fc with S228P (EU numbers) skipped]
light: EIKMNQSPSSLSASLGDTITITCHASQNINVWLSWYQQKPGNIPKLLIYKASNLHTGVPSRFSGSGSGTGFTLTISSLQPEDIATYYCQQGQSYPYTFGGGTKLELKRTVAAPSVFIFPPSDEQLKSGTASVVCLLNNFYPREAKVQWKVDNALQSGNSQESVTEQDSKDSTYSLSSTLTLSKADYEKHKVYACEVTHQGLSSPVTKSFNRGEC
